This passage reports TetR repression strength results from a collection of fitness landscapes (doi:10.1038/s41467-024-54723-y).

In all, about 18,000 sequences were measured (“TetR repression strength (sort-seq, GFP reporter)”: median about 0.23, highest 2% from about 0.68 on). The list shows a part of the results.

This test deals with TetR (class B, Tn10) (UniProt P04483). Nature of the test: TetR repression strength (sort-seq, GFP reporter) (relative to tetO2 = 1); higher = stronger repression. Particulars: E. coli. An outline of the steps: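 E. coli SIG10-MAX carried a low-copy plasmid library with eight randomized operator positions between a constitutive promoter and sfGFP, with TetR constitutively expressed. Cells grew 5 h at 37 °C in LB with 50 µg/mL chloramphenicol, then 10^6 cells were FACS-sorted into 13 fluorescence bins, each Illumina-sequenced. Repression strength is the top bin index plus one minus the read-weighted mean bin, divided by the wild-type operator value. Three independent transformations; variants with ≥30 reads in all replicates and CV ≤0.5 were averaged.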
Sequence of UniProt P04483 (P04483 whole entry): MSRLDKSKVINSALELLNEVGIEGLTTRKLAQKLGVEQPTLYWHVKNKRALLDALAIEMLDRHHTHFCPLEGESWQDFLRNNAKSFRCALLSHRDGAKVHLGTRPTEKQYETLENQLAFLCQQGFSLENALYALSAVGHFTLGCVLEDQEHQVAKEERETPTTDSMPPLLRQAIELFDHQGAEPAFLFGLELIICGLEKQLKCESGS
Consider TCCCCCGAAGTCGCTGAGA, for which the TetR repression strength was 0.316.
To TCCCACCTAGTGACTGAGA belongs 0.338.
In turn, TCCCGGACAGTCCGCGAGA returned a TetR repression strength of 0.21.
Regarding TCCCTAGAAGTTGGTGAGA, the TetR repression strength worked out at 0.46.
TCCCGAAGAGTCGCAGAGA had a TetR repression strength of 0.285.
Sequence TCCCAGTCAGTGCGAGAGA displayed a TetR repression strength of 0.253.
To TCCCGATTAGTCGGCGAGA belongs 0.265; to TCCCTGATAGTAGTGGAGA, 0.133.
Consider TCCCATCAAGTAACGGAGA, for which the TetR repression strength came out at 0.118.
In turn, TCCCGTATAGTGGAGGAGA had a TetR repression strength of 0.054.
In the case of TCCCAGCGAGTAGGAGAGA, the TetR repression strength came to 0.084.
The sequence TCCCAGCGAGTGGGGGAGA yielded a TetR repression strength of 0.275.
TCCCGTAAAGTACCGGAGA gave a TetR repression strength of 0.183.
Take TCCCACCTAGTTGGGGAGA: the TetR repression strength was found to be 0.251.
In the case of TCCCTGCAAGTTGTGGAGA it was 0.0932.
As for TCCCGAGCAGTTTGGGAGA, the TetR repression strength amounted to 0.214.
TCCCACGGAGTGACTGAGA showed a TetR repression strength of 0.361.
To TCCCGAGGAGTTGAAGAGA belongs 0.0679; to TCCCTGCCAGTTCGGGAGA, 0.304.
On to TCCCGAAGAGTGCGGGAGA, for which the TetR repression strength amounted to 0.272.
In turn, TCCCGTCGAGTTAGAGAGA gave a TetR repression strength of 0.334.
Take TCCCGTACAGTCGATGAGA: the TetR repression strength was determined as 0.138.
For TCCCGTACAGTCGGCGAGA, the TetR repression strength is 0.159.
Consider TCCCACCGAGTTGTAGAGA, for which the TetR repression strength is 0.108.
With TCCCCGAAAGTCTAGGAGA, the TetR repression strength is 0.224.
As for TCCCGCGCAGTGCCAGAGA, the TetR repression strength is 0.363.
The sequence TCCCAACGAGTTGTGGAGA had a TetR repression strength of 0.189.
TCCCGGATAGTTGTGGAGA returned a TetR repression strength of 0.298.
For TCCCTATTAGTAACTGAGA, the TetR repression strength is 0.378.
To TCCCGCAGAGTGGGGGAGA belongs 0.213; to TCCCACAAAGTTGAAGAGA, 0.553; to TCCCCATCAGTGTGAGAGA, 0.146.
TCCCCTACAGTGGCGGAGA showed a TetR repression strength of 0.143.
In the case of TCCCGTTTAGTACTAGAGA it was 0.075.
Sequence TCCCCGTGAGTCAGAGAGA displayed a TetR repression strength of 0.963.
On to TCCCAGTGAGTGCTGGAGA, for which the TetR repression strength was 0.111.
TCCCTGCGAGTGCGAGAGA showed a TetR repression strength of 0.049.
Consider TCCCAGCGAGTGCGGGAGA, for which the TetR repression strength came to 0.304.
TCCCTGGCAGTGATAGAGA: the TetR repression strength was determined as 0.489.
TCCCGTTGAGTAAGCGAGA: the TetR repression strength was found to be 0.104.
Take TCCCAATCAGTTTTGGAGA: the TetR repression strength was 0.207.
As for TCCCCTGTAGTCACCGAGA, the TetR repression strength came to 0.402.
In the case of TCCCGTCTAGTGAAGGAGA it was 0.315; in that of TCCCAGGCAGTGGGGGAGA, 0.193; in that of TCCCCGGTAGTCGAGGAGA, 0.315.
For the sequence TCCCTGGTAGTCTCGGAGA, the TetR repression strength amounted to 0.203.
As to TCCCAAAGAGTAATTGAGA, the TetR repression strength is 0.104.
Regarding TCCCGGCGAGTCTGTGAGA, the TetR repression strength came out at 0.316.
TCCCAGGCAGTCTCGGAGA registered a TetR repression strength of 0.385.
Take TCCCGTTAAGTAGGGGAGA: the TetR repression strength was determined as 0.47.
To TCCCAGTTAGTATTTGAGA belongs 0.0715.
As for TCCCCTTTAGTATTCGAGA, the TetR repression strength was 0.334.
The sequence TCCCCCCGAGTGCAGGAGA displayed a TetR repression strength of 0.304.
With TCCCCACCAGTGTTGGAGA, the TetR repression strength was found to be 0.274.
To TCCCGTTCAGTTGCGGAGA belongs 0.0104.
Consider TCCCTTGAAGTAAGCGAGA, for which the TetR repression strength was found to be 0.442.
In the case of TCCCGGAAAGTCCGAGAGA it was 0.34; in that of TCCCATGAAGTAGCCGAGA, 0.
Sequence TCCCGGCAAGTGAAGGAGA returned a TetR repression strength of 0.459.
TCCCGTCTAGTGCGCGAGA displayed a TetR repression strength of 0.334.
Take TCCCACTGAGTGTATGAGA: the TetR repression strength is 0.175.
For the sequence TCCCTAATAGTACCAGAGA, the TetR repression strength is 0.377.
In turn, TCCCAATGAGTAGCTGAGA came in with a TetR repression strength of 0.0946.
In turn, TCCCCTTGAGTCATAGAGA gave a TetR repression strength of 0.304.
In the case of TCCCGGAGAGTGACTGAGA, the TetR repression strength stood at 0.147.
With TCCCCGTTAGTTAAGGAGA, the TetR repression strength came out at 0.149.
In the case of TCCCGATCAGTGGGCGAGA it was 0.187.
For the sequence TCCCGGGGAGTATTGGAGA, the TetR repression strength was 0.393.
As to TCCCGGTAAGTGCGAGAGA, the TetR repression strength turned out to be 0.0234.
TCCCAAAGAGTATGGGAGA showed a TetR repression strength of 0.15.
Consider TCCCGAATAGTGTGAGAGA, for which the TetR repression strength is 0.299.
To TCCCGTGGAGTGCACGAGA belongs 0.315; to TCCCCATTAGTGTAGGAGA, 0.162.
In turn, TCCCGTGGAGTCAGTGAGA showed a TetR repression strength of 0.411.
TCCCTTCGAGTCCGAGAGA returned a TetR repression strength of 0.228.
The sequence TCCCTGGAAGTGAGTGAGA returned a TetR repression strength of 0.187.
In turn, TCCCTACCAGTAATGGAGA had a TetR repression strength of 0.278.
For TCCCCCTGAGTAGTAGAGA, the TetR repression strength is 0.207.
In the case of TCCCGGATAGTTTGGGAGA it was 0.194.
The sequence TCCCCGGCAGTGTCTGAGA had a TetR repression strength of 0.216.
Take TCCCAACGAGTAGGGGAGA: the TetR repression strength worked out at 0.0703.
Take TCCCTGACAGTCCGTGAGA: the TetR repression strength was found to be 0.248.
Regarding TCCCATCGAGTGTTCGAGA, the TetR repression strength was 0.35.
Turning to TCCCAGTGAGTCTAGGAGA, the TetR repression strength came to 0.171.
In the case of TCCCGCGGAGTCAGTGAGA it was 0.276.
TCCCATTAAGTCGGTGAGA: the TetR repression strength amounted to 0.0389.
To TCCCGAGCAGTAATGGAGA belongs 0.167; to TCCCTTGTAGTCATGGAGA, 0.687; to TCCCTTTGAGTATGGGAGA, 0.0551.
TCCCAGTCAGTCACGGAGA showed a TetR repression strength of 0.0748.
TCCCGCCAAGTGAGAGAGA gave a TetR repression strength of 0.254.
In turn, TCCCCGGGAGTATAAGAGA yielded a TetR repression strength of 0.235.
TCCCGCGGAGTGTCGGAGA registered a TetR repression strength of 0.485.
As for TCCCGAAGAGTTACTGAGA, the TetR repression strength worked out at 0.154.
TCCCAGTTAGTTTAAGAGA yielded a TetR repression strength of 0.267.
On to TCCCCGGGAGTAGGCGAGA, for which the TetR repression strength was determined as 0.134.
In the case of TCCCGCGTAGTCTACGAGA, the TetR repression strength was 0.189.
As for TCCCATGGAGTGATTGAGA, the TetR repression strength was 0.171.
The sequence TCCCTGCCAGTTCCGGAGA gave a TetR repression strength of 0.127.
Turning to TCCCTAACAGTCAAGGAGA, the TetR repression strength amounted to 0.364.
In turn, TCCCACAGAGTGAACGAGA yielded a TetR repression strength of 0.387.
Regarding TCCCTAGGAGTGGGAGAGA, the TetR repression strength was 0.18.
